# Data taken from the supplement of paper PMC8728848.
# The list shows a part of the results.
# B1: BTL (Bryothamnion triquetrum) (protein)
# chain: ADPICGSSGYSCTTPAILTPKSPGSFPSGYSKVIVTGVGGSYSVYIHRPDGFKVYKASEGGCASFGSYSGGGNSEVGKYGSGGTVVAVACK
# Key:
# Assay in all cases: glycan array binding signal (z-score within array); higher = stronger binding
# Details in all cases: glycan notation: IUPAC condensed, linker removed
# [1] = biological target: Fuc(a1-2)Gal6S(b1-3)GlcNAc
# Method in brief: (§1)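 The binding signal is a Z-score computed within each array. Data were drawn from 3228 arrays in the Consortium for Functional Glycomics database, restricted to those with a known protein sequence. Scores were averaged over arrays of the same protein sequence at different concentrations or buffers, and over linkers, and negative values can be taken as non-binding.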
# [2] = biological target: Fuc(a1-2)Gal6S(b1-3)GlcNAc6S
# Method in brief: as §1
# Fuc(a1-2)Gal6S(b1-4)Glc = biological target: Fuc(a1-2)Gal6S(b1-4)Glc
# Method in brief: as §1
# [3] = biological target: Fuc(a1-2)Gal6S(b1-4)Glc6S
# Method in brief: as §1
# Fuc(a1-2)[Gal(a1-3)]Gal = biological target: Fuc(a1-2)[Gal(a1-3)]Gal
# Method in brief: as §1
# [4] = biological target: Fuc(a1-2)[Gal(a1-3)]Gal(b1-3)GalNAc
# Method in brief: as §1
# [5] = biological target: Fuc(a1-2)[Gal(a1-3)]Gal(b1-3)GalNAc(b1-3)Gal(a1-4)Gal(b1-4)Glc
# Method in brief: as §1
# [6] = biological target: Fuc(a1-2)[Gal(a1-3)]Gal(b1-3)GlcNAc
# Method in brief: as §1
# [7] = biological target: Fuc(a1-2)[Gal(a1-3)]Gal(b1-3)GlcNAc(b1-2)Man(a1-3)[Fuc(a1-2)[Gal(a1-3)]Gal(b1-3)GlcNAc(b1-2)Man(a1-6)]Man(b1-4)GlcNAc(b1-4)GlcNAc
# Method in brief: as §1
# [8] = biological target: Fuc(a1-2)[Gal(a1-3)]Gal(b1-3)GlcNAc(b1-2)Man(a1-3)[Fuc(a1-2)[Gal(a1-3)]Gal(b1-3)GlcNAc(b1-2)Man(a1-6)]Man(b1-4)GlcNAc(b1-4)[Fuc(a1-6)]GlcNAc
# Method in brief: as §1
# [9] = biological target: Fuc(a1-2)[Gal(a1-3)]Gal(b1-3)GlcNAc(b1-3)GalNAc
# Method in brief: as §1
# [10] = biological target: Fuc(a1-2)[Gal(a1-3)]Gal(b1-3)GlcNAc(b1-6)GalNAc
# Method in brief: as §1
# [11] = biological target: Fuc(a1-2)[Gal(a1-3)]Gal(b1-4)Glc
# Method in brief: as §1
# [12] = biological target: Fuc(a1-2)[Gal(a1-3)]Gal(b1-4)GlcNAc
# Method in brief: as §1
# [13] = biological target: Fuc(a1-2)[Gal(a1-3)]Gal(b1-4)GlcNAc(b1-2)Man
# Method in brief: as §1
# [14] = biological target: Fuc(a1-2)[Gal(a1-3)]Gal(b1-4)GlcNAc(b1-2)Man(a1-3)[Fuc(a1-2)[Gal(a1-3)]Gal(b1-4)GlcNAc(b1-2)Man(a1-6)]Man(b1-4)GlcNAc(b1-4)GlcNAc
# Method in brief: as §1
# [15] = biological target: Fuc(a1-2)[Gal(a1-3)]Gal(b1-4)GlcNAc(b1-2)Man(a1-3)[Fuc(a1-2)[Gal(a1-3)]Gal(b1-4)GlcNAc(b1-2)Man(a1-6)]Man(b1-4)GlcNAc(b1-4)[Fuc(a1-6)]GlcNAc
# Method in brief: as §1
# [16] = biological target: Fuc(a1-2)[Gal(a1-3)]Gal(b1-4)GlcNAc(b1-3)GalNAc
# Method in brief: as §1
# [17] = biological target: Fuc(a1-2)[Gal(a1-3)]Gal(b1-4)GlcNAc(b1-3)[Fuc(a1-2)[Gal(a1-3)]Gal(b1-4)GlcNAc(b1-6)]GalNAc
# Method in brief: as §1
# [18] = biological target: Fuc(a1-2)[Gal(a1-3)]Gal(b1-4)GlcNAc(b1-6)GalNAc
# Method in brief: as §1
# [19] = biological target: Fuc(a1-2)[Gal(a1-3)]Gal(b1-4)[Fuc(a1-3)]Glc
# Method in brief: as §1
# [20] = biological target: Fuc(a1-2)[Gal(a1-3)]Gal(b1-4)[Fuc(a1-3)]GlcNAc
# Method in brief: as §1
# [21] = biological target: Fuc(a1-2)[Gal(a1-3)]Gal(b1-4)[Fuc(a1-3)]GlcNAc(b1-3)GalNAc
# Method in brief: as §1
# [22] = biological target: Fuc(a1-2)[Gal(a1-4)]Gal(b1-4)GlcNAc
# Method in brief: as §1
# [23] = biological target: Fuc(a1-2)[GalNAc(a1-3)]Gal
# Method in brief: as §1
# [24] = biological target: Fuc(a1-2)[GalNAc(a1-3)]Gal(b1-3)GalNAc(a1-3)[Fuc(a1-2)]Gal(b1-4)GlcNAc
# Method in brief: as §1
# [25] = biological target: Fuc(a1-2)[GalNAc(a1-3)]Gal(b1-3)GalNAc(b1-3)Gal(a1-4)Gal(b1-4)Glc
# Method in brief: as §1
# [26] = biological target: Fuc(a1-2)[GalNAc(a1-3)]Gal(b1-3)GlcNAc
# Method in brief: as §1
# [27] = biological target: Fuc(a1-2)[GalNAc(a1-3)]Gal(b1-3)GlcNAc(b1-2)Man(a1-3)[Fuc(a1-2)[GalNAc(a1-3)]Gal(b1-3)GlcNAc(b1-2)Man(a1-6)]Man(b1-4)GlcNAc(b1-4)GlcNAc
# Method in brief: as §1
# [28] = biological target: Fuc(a1-2)[GalNAc(a1-3)]Gal(b1-3)GlcNAc(b1-2)Man(a1-3)[Fuc(a1-2)[GalNAc(a1-3)]Gal(b1-3)GlcNAc(b1-2)Man(a1-6)]Man(b1-4)GlcNAc(b1-4)[Fuc(a1-6)]GlcNAc
# Method in brief: as §1
# [29] = biological target: Fuc(a1-2)[GalNAc(a1-3)]Gal(b1-3)GlcNAc(b1-3)GalNAc
# Method in brief: as §1
# [30] = biological target: Fuc(a1-2)[GalNAc(a1-3)]Gal(b1-3)GlcNAc(b1-6)GalNAc
# Method in brief: as §1
# [31] = biological target: Fuc(a1-2)[GalNAc(a1-3)]Gal(b1-4)Glc
# Method in brief: as §1
# [32] = biological target: Fuc(a1-2)[GalNAc(a1-3)]Gal(b1-4)GlcNAc
# Method in brief: as §1
# [33] = biological target: Fuc(a1-2)[GalNAc(a1-3)]Gal(b1-4)GlcNAc(b1-2)Man
# Method in brief: as §1
# [34] = biological target: Fuc(a1-2)[GalNAc(a1-3)]Gal(b1-4)GlcNAc(b1-2)Man(a1-3)[Fuc(a1-2)[GalNAc(a1-3)]Gal(b1-4)GlcNAc(b1-2)Man(a1-6)]Man(b1-4)GlcNAc(b1-4)GlcNAc
# Method in brief: as §1
# [35] = biological target: Fuc(a1-2)[GalNAc(a1-3)]Gal(b1-4)GlcNAc(b1-2)Man(a1-3)[Fuc(a1-2)[GalNAc(a1-3)]Gal(b1-4)GlcNAc(b1-2)Man(a1-6)]Man(b1-4)GlcNAc(b1-4)[Fuc(a1-6)]GlcNAc
# Method in brief: as §1
# [36] = biological target: Fuc(a1-2)[GalNAc(a1-3)]Gal(b1-4)GlcNAc(b1-3)Gal(b1-4)GlcNAc
# Method in brief: as §1
# [37] = biological target: Fuc(a1-2)[GalNAc(a1-3)]Gal(b1-4)GlcNAc(b1-3)Gal(b1-4)GlcNAc(b1-3)Gal(b1-4)GlcNAc
# Method in brief: as §1
# [38] = biological target: Fuc(a1-2)[GalNAc(a1-3)]Gal(b1-4)GlcNAc(b1-3)GalNAc
# Method in brief: as §1
# [39] = biological target: Fuc(a1-2)[GalNAc(a1-3)]Gal(b1-4)GlcNAc(b1-3)[Fuc(a1-2)[GalNAc(a1-3)]Gal(b1-4)GlcNAc(b1-6)]GalNAc
# Method in brief: as §1
# [40] = biological target: Fuc(a1-2)[GalNAc(a1-3)]Gal(b1-4)GlcNAc(b1-6)GalNAc
# Method in brief: as §1
# [41] = biological target: Fuc(a1-2)[GalNAc(a1-3)]Gal(b1-4)[Fuc(a1-3)]GlcNAc
# Method in brief: as §1
# [42] = biological target: Fuc(a1-2)[GalNAc(a1-3)]Gal(b1-4)[Fuc(a1-3)]GlcNAc(b1-3)GalNAc
# Method in brief: as §1
# [43] = biological target: Fuc(a1-2)[GalNAc(a1-4)]Gal(b1-4)GlcNAc
# Method in brief: as §1
binder,measurement,setting,value
B1,glycan array binding signal (z-score),[1],-0.27
same,glycan array binding signal (z-score),[2],-0.157
same,glycan array binding signal (z-score),Fuc(a1-2)Gal6S(b1-4)Glc,-0.244
same,glycan array binding signal (z-score),[3],-0.275
same,glycan array binding signal (z-score),Fuc(a1-2)[Gal(a1-3)]Gal,-0.215
same,glycan array binding signal (z-score),[4],-0.203
same,glycan array binding signal (z-score),[5],-0.231
same,glycan array binding signal (z-score),[6],-0.304
same,glycan array binding signal (z-score),[7],0.023
same,glycan array binding signal (z-score),[8],3.03
same,glycan array binding signal (z-score),[9],-0.188
same,glycan array binding signal (z-score),[10],-0.206
same,glycan array binding signal (z-score),[11],-0.15
same,glycan array binding signal (z-score),[12],-0.215
same,glycan array binding signal (z-score),[13],-0.25
same,glycan array binding signal (z-score),[14],-0.041
same,glycan array binding signal (z-score),[15],2.46
same,glycan array binding signal (z-score),[16],-0.174
same,glycan array binding signal (z-score),[17],-0.119
same,glycan array binding signal (z-score),[18],-0.041
same,glycan array binding signal (z-score),[19],-0.286
same,glycan array binding signal (z-score),[20],-0.234
same,glycan array binding signal (z-score),[21],-0.188
same,glycan array binding signal (z-score),[22],-0.252
same,glycan array binding signal (z-score),[23],-0.262
same,glycan array binding signal (z-score),[24],-0.242
same,glycan array binding signal (z-score),[25],-0.149
same,glycan array binding signal (z-score),[26],-0.232
same,glycan array binding signal (z-score),[27],-0.139
same,glycan array binding signal (z-score),[28],2.05
same,glycan array binding signal (z-score),[29],-0.18
same,glycan array binding signal (z-score),[30],-0.277
same,glycan array binding signal (z-score),[31],-0.217
same,glycan array binding signal (z-score),[32],-0.268
same,glycan array binding signal (z-score),[33],-0.23
same,glycan array binding signal (z-score),[34],-0.094
same,glycan array binding signal (z-score),[35],1.3
same,glycan array binding signal (z-score),[36],-0.228
same,glycan array binding signal (z-score),[37],-0.221
same,glycan array binding signal (z-score),[38],-0.306
same,glycan array binding signal (z-score),[39],-0.234
same,glycan array binding signal (z-score),[40],-0.281
same,glycan array binding signal (z-score),[41],-0.244
same,glycan array binding signal (z-score),[42],-0.17
same,glycan array binding signal (z-score),[43],-0.202
